This is an account of results in a collection of fitness landscapes (doi:10.1016/j.celrep.2020.107928).

To fix the notation:
B1: Caulobacter ParB omega fusion; a variant is named by its letters at X, in order, B8GW30 (parent)
chain: MESVVVGEPGMSEGRRGLGRGLSALLGEVDAAPAQAPGEQLGGSREAPIEILQRNPDQPRRTFREEDLEDLSNSIREKGVLQPILVRPSPDTAGEYQIVAGERAWRAAQRAGLKTVPIMVRELDDLAVLEIGIIENVQRADLNVLEEALSYKVLMEKFERTQENIAQTIGKSXSHVANXMRLLXLPDEVQSYLVSGELTAXHARAIAAAADPVALAKQIIEGGLSVRETEALARKAPNLSAGKSKGGRPPRVKDTDTQALESDLSSVLGLDVSIDHRGSTGTLTITYATLEQLDDLCNRLTRGI

The full ranking holds about 81,000 sequences; the median of “one-hybrid fitness for binding parS DNA” is about -0.17, and the highest 2% start at about 0.51. This is one part of the list.

This assay covers variants of B1. The assay is described as follows: one-hybrid fitness for binding parS DNA (scaled: cognate 1, non-cognate 0); higher = stronger binding. As to conditions: with parS DNA site. In outline: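 In E. coli USO, a HIS3 reporter with its site placed 19 bp from the promoter was used to select Caulobacter ParB variants randomised at four specificity codons. Growth lasted 48 hours at 37°C on histidine-free M9 containing 0.1 mM IPTG and 5 mM 3-AT. Fitness was taken as the log change in variant-to-wild-type read ratio from Illumina sequencing of pre- and post-selection plasmids, rescaled between the non-cognate and cognate sites.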
PQKL: the “one-hybrid fitness for binding parS DNA” value is not above 0.2.

Consider QCRD, for which the “one-hybrid fitness for binding parS DNA” value was not above 0.2.

Regarding LMKG, the “one-hybrid fitness for binding parS DNA” value is not above 0.2.

For YETE, the “one-hybrid fitness for binding parS DNA” value is not above 0.2.

Regarding MLDC, the “one-hybrid fitness for binding parS DNA” value is not above 0.2.

Regarding NIRD, the “one-hybrid fitness for binding parS DNA” value is not above 0.2.

On to PKFG, for which the “one-hybrid fitness for binding parS DNA” value was not above 0.2.

For GRYC, the “one-hybrid fitness for binding parS DNA” value was not above 0.2.

As for RWRV, the “one-hybrid fitness for binding parS DNA” value was not above 0.2.

Regarding TCTC, the “one-hybrid fitness for binding parS DNA” value is not above 0.2.

Turning to AVNT, the “one-hybrid fitness for binding parS DNA” value is not above 0.2.

Consider ILCC, for which the “one-hybrid fitness for binding parS DNA” value is not above 0.2.

Take MVVV: the “one-hybrid fitness for binding parS DNA” value was not above 0.2.

Consider YGPS, for which the “one-hybrid fitness for binding parS DNA” value is not above 0.2.

With DGKN, the “one-hybrid fitness for binding parS DNA” value was not above 0.2.

As for QVCL, the “one-hybrid fitness for binding parS DNA” value is not above 0.2.

In the case of CRKG, the “one-hybrid fitness for binding parS DNA” value is not above 0.2.

As to STTR, the “one-hybrid fitness for binding parS DNA” value was not above 0.2.

Consider LPYD, for which the “one-hybrid fitness for binding parS DNA” value is not above 0.2.

In the case of GMCV, the “one-hybrid fitness for binding parS DNA” value was not above 0.2.

On to RDIV, for which the “one-hybrid fitness for binding parS DNA” value is not above 0.2.

For RHEG, the “one-hybrid fitness for binding parS DNA” value was determined as 0.898.

With TKYL, the “one-hybrid fitness for binding parS DNA” value was not above 0.2.

Take PAHH: the “one-hybrid fitness for binding parS DNA” value was not above 0.2.

For PHPD, the “one-hybrid fitness for binding parS DNA” value was not above 0.2.

Turning to ADSW, the “one-hybrid fitness for binding parS DNA” value was not above 0.2.

On to SNRA, for which the “one-hybrid fitness for binding parS DNA” value is not above 0.2.

As for RFEE, the “one-hybrid fitness for binding parS DNA” value was not above 0.2.

As for NDKG, the “one-hybrid fitness for binding parS DNA” value is not above 0.2.

For KYIG, the “one-hybrid fitness for binding parS DNA” value is not above 0.2.

As to SIRL, the “one-hybrid fitness for binding parS DNA” value was not above 0.2.

As to YTYS, the “one-hybrid fitness for binding parS DNA” value is not above 0.2.

With CLNL, the “one-hybrid fitness for binding parS DNA” value was not above 0.2.

For the variant DPIS, the “one-hybrid fitness for binding parS DNA” value was not above 0.2.

With GAVS, the “one-hybrid fitness for binding parS DNA” value was not above 0.2.

Turning to DRLY, the “one-hybrid fitness for binding parS DNA” value is not above 0.2.

For CMHK, the “one-hybrid fitness for binding parS DNA” value was not above 0.2.

As to EVAL, the “one-hybrid fitness for binding parS DNA” value is not above 0.2.

Turning to HVMC, the “one-hybrid fitness for binding parS DNA” value is not above 0.2.

On to SFDD, for which the “one-hybrid fitness for binding parS DNA” value is not above 0.2.

Turning to CNKG, the “one-hybrid fitness for binding parS DNA” value was not above 0.2.

As to RKNQ, the “one-hybrid fitness for binding parS DNA” value was not above 0.2.

As for ETVT, the “one-hybrid fitness for binding parS DNA” value is not above 0.2.

For the variant TNQL, the “one-hybrid fitness for binding parS DNA” value was not above 0.2.

For the variant QLCG, the “one-hybrid fitness for binding parS DNA” value is not above 0.2.

As for KICG, the “one-hybrid fitness for binding parS DNA” value is not above 0.2.

As for SMVI, the “one-hybrid fitness for binding parS DNA” value was not above 0.2.

As for IILT, the “one-hybrid fitness for binding parS DNA” value was not above 0.2.

In the case of TFSL, the “one-hybrid fitness for binding parS DNA” value is not above 0.2.

Regarding KTPL, the “one-hybrid fitness for binding parS DNA” value is not above 0.2.

As for YMVA, the “one-hybrid fitness for binding parS DNA” value was not above 0.2.

Regarding RMRL, the “one-hybrid fitness for binding parS DNA” value is not above 0.2.

As to EVTG, the “one-hybrid fitness for binding parS DNA” value was not above 0.2.

For the variant ASWY, the “one-hybrid fitness for binding parS DNA” value was not above 0.2.

On to EGCG, for which the “one-hybrid fitness for binding parS DNA” value was not above 0.2.

For the variant ECFS, the “one-hybrid fitness for binding parS DNA” value is not above 0.2.

For the variant QNLY, the “one-hybrid fitness for binding parS DNA” value was not above 0.2.

For the variant TKGS, the “one-hybrid fitness for binding parS DNA” value was not above 0.2.

In the case of PPEL, the “one-hybrid fitness for binding parS DNA” value is not above 0.2.

Regarding KLNK, the “one-hybrid fitness for binding parS DNA” value was not above 0.2.

For the variant WLCN, the “one-hybrid fitness for binding parS DNA” value was not above 0.2.

YNKT: the “one-hybrid fitness for binding parS DNA” value was not above 0.2.

Turning to RKGV, the “one-hybrid fitness for binding parS DNA” value is not above 0.2.

As for EQTV, the “one-hybrid fitness for binding parS DNA” value is not above 0.2.

As to SFPR, the “one-hybrid fitness for binding parS DNA” value is not above 0.2.

On to TKSR, for which the “one-hybrid fitness for binding parS DNA” value is not above 0.2.

Take HTYI: the “one-hybrid fitness for binding parS DNA” value is not above 0.2.

For QIPE, the “one-hybrid fitness for binding parS DNA” value is not above 0.2.

On to CDPK, for which the “one-hybrid fitness for binding parS DNA” value was not above 0.2.

As for PGNQ, the “one-hybrid fitness for binding parS DNA” value was not above 0.2.

As to RLCM, the “one-hybrid fitness for binding parS DNA” value is 0.342.

Take IDPT: the “one-hybrid fitness for binding parS DNA” value was not above 0.2.

For DDSW, the “one-hybrid fitness for binding parS DNA” value is not above 0.2.

Regarding RHEL, the “one-hybrid fitness for binding parS DNA” value is not above 0.2.

Take GTVE: the “one-hybrid fitness for binding parS DNA” value was not above 0.2.

Take TNFF: the “one-hybrid fitness for binding parS DNA” value is not above 0.2.

Take NTAG: the “one-hybrid fitness for binding parS DNA” value is not above 0.2.

Turning to LPFA, the “one-hybrid fitness for binding parS DNA” value amounted to 0.253.

QPVM: the “one-hybrid fitness for binding parS DNA” value is not above 0.2.

Regarding YRKH, the “one-hybrid fitness for binding parS DNA” value was not above 0.2.

In the case of CMNT, the “one-hybrid fitness for binding parS DNA” value was not above 0.2.

In the case of WIPR, the “one-hybrid fitness for binding parS DNA” value was not above 0.2.

AILC: the “one-hybrid fitness for binding parS DNA” value is not above 0.2.

As for QAEG, the “one-hybrid fitness for binding parS DNA” value is not above 0.2.

As for ERMT, the “one-hybrid fitness for binding parS DNA” value is not above 0.2.

YLMT: the “one-hybrid fitness for binding parS DNA” value was not above 0.2.

On to MYTF, for which the “one-hybrid fitness for binding parS DNA” value is not above 0.2.

For the variant PPCS, the “one-hybrid fitness for binding parS DNA” value is not above 0.2.

Turning to CAGF, the “one-hybrid fitness for binding parS DNA” value is not above 0.2.

Consider IHED, for which the “one-hybrid fitness for binding parS DNA” value was not above 0.2.

Take ITSR: the “one-hybrid fitness for binding parS DNA” value was not above 0.2.

For HYVS, the “one-hybrid fitness for binding parS DNA” value was not above 0.2.

Regarding NLGD, the “one-hybrid fitness for binding parS DNA” value is not above 0.2.

Take VKKH: the “one-hybrid fitness for binding parS DNA” value is not above 0.2.

For the variant ACFR, the “one-hybrid fitness for binding parS DNA” value is not above 0.2.

As for RTGM, the “one-hybrid fitness for binding parS DNA” value turned out to be 0.33.

Take KPSI: the “one-hybrid fitness for binding parS DNA” value was not above 0.2.

Regarding NYCR, the “one-hybrid fitness for binding parS DNA” value is not above 0.2.

In the case of SGNA, the “one-hybrid fitness for binding parS DNA” value was not above 0.2.

As to LQGP, the “one-hybrid fitness for binding parS DNA” value is not above 0.2.

On to MKCN, for which the “one-hybrid fitness for binding parS DNA” value was not above 0.2.

On to GDPW, for which the “one-hybrid fitness for binding parS DNA” value was not above 0.2.

Consider QVMM, for which the “one-hybrid fitness for binding parS DNA” value was not above 0.2.

For MILV, the “one-hybrid fitness for binding parS DNA” value is not above 0.2.

As for RHSK, the “one-hybrid fitness for binding parS DNA” value is not above 0.2.

For the variant DGKQ, the “one-hybrid fitness for binding parS DNA” value is not above 0.2.

With AVRH, the “one-hybrid fitness for binding parS DNA” value was not above 0.2.

In the case of SAVW, the “one-hybrid fitness for binding parS DNA” value was not above 0.2.

Consider HTSP, for which the “one-hybrid fitness for binding parS DNA” value is not above 0.2.

For the variant AYDL, the “one-hybrid fitness for binding parS DNA” value was not above 0.2.

Take RVSF: the “one-hybrid fitness for binding parS DNA” value came to 0.224.

For the variant PRGW, the “one-hybrid fitness for binding parS DNA” value was not above 0.2.

Take WGLN: the “one-hybrid fitness for binding parS DNA” value was not above 0.2.

Consider YCEG, for which the “one-hybrid fitness for binding parS DNA” value was not above 0.2.

Regarding HAAG, the “one-hybrid fitness for binding parS DNA” value was not above 0.2.

Take PAAW: the “one-hybrid fitness for binding parS DNA” value is not above 0.2.

With LRIN, the “one-hybrid fitness for binding parS DNA” value was not above 0.2.

On to WQYR, for which the “one-hybrid fitness for binding parS DNA” value was not above 0.2.

Consider PLQR, for which the “one-hybrid fitness for binding parS DNA” value was not above 0.2.

Turning to WTQS, the “one-hybrid fitness for binding parS DNA” value was not above 0.2.

RKIR: the “one-hybrid fitness for binding parS DNA” value is not above 0.2.

Consider NQRS, for which the “one-hybrid fitness for binding parS DNA” value is not above 0.2.

With VFSS, the “one-hybrid fitness for binding parS DNA” value was not above 0.2.

For RHPY, the “one-hybrid fitness for binding parS DNA” value was not above 0.2.

For the variant PPSW, the “one-hybrid fitness for binding parS DNA” value was not above 0.2.

LTLY: the “one-hybrid fitness for binding parS DNA” value was not above 0.2.

With DIAS, the “one-hybrid fitness for binding parS DNA” value was not above 0.2.

As to TAPS, the “one-hybrid fitness for binding parS DNA” value is not above 0.2.

With LNLS, the “one-hybrid fitness for binding parS DNA” value was not above 0.2.

In the case of RGMC, the “one-hybrid fitness for binding parS DNA” value was 0.543.

Turning to AQQI, the “one-hybrid fitness for binding parS DNA” value was not above 0.2.

For the variant DASK, the “one-hybrid fitness for binding parS DNA” value was not above 0.2.

SKFC: the “one-hybrid fitness for binding parS DNA” value was not above 0.2.

On to QCRR, for which the “one-hybrid fitness for binding parS DNA” value came out at 0.266.

In the case of RRSD, the “one-hybrid fitness for binding parS DNA” value is not above 0.2.

PHHP: the “one-hybrid fitness for binding parS DNA” value was not above 0.2.

For the variant PKCQ, the “one-hybrid fitness for binding parS DNA” value was not above 0.2.

For VHCG, the “one-hybrid fitness for binding parS DNA” value was not above 0.2.

Regarding DCRC, the “one-hybrid fitness for binding parS DNA” value was not above 0.2.

As for VLRR, the “one-hybrid fitness for binding parS DNA” value is not above 0.2.

Take QVKS: the “one-hybrid fitness for binding parS DNA” value was not above 0.2.

As to EPVK, the “one-hybrid fitness for binding parS DNA” value was not above 0.2.

Turning to GAKK, the “one-hybrid fitness for binding parS DNA” value was not above 0.2.

As for NSIL, the “one-hybrid fitness for binding parS DNA” value is not above 0.2.

For SICS, the “one-hybrid fitness for binding parS DNA” value is not above 0.2.

For VSPL, the “one-hybrid fitness for binding parS DNA” value is not above 0.2.

Regarding YSHG, the “one-hybrid fitness for binding parS DNA” value was not above 0.2.

As to HSGT, the “one-hybrid fitness for binding parS DNA” value is not above 0.2.

As to EAQS, the “one-hybrid fitness for binding parS DNA” value is not above 0.2.

For the variant LSAK, the “one-hybrid fitness for binding parS DNA” value is not above 0.2.

Consider FLSC, for which the “one-hybrid fitness for binding parS DNA” value is not above 0.2.

PRAV: the “one-hybrid fitness for binding parS DNA” value is not above 0.2.

In the case of CRAG, the “one-hybrid fitness for binding parS DNA” value is not above 0.2.
